Assay results reported in PubChem BioAssay AID2069 (Sanford-Burnham Center for Chemical Genomics, 2009).
About 210 (18%) of roughly 1,200 compounds were called active. Cut-off read from the data, not from the text of the source: active = inhibition above about 30%; inactive = the rest. Only a part is listed here, and it is no random draw.

Assay: fluorescence readout artefact check – biochemical, HTRF, uHTS, artefact control for SUMOylation inhibitor project, confirmation (AID 2069)
Conditions: HTRF interference counterscreen, at 35 µM, active compounds read high

| SMILES | inhibition |
| --- | --- |
| Cc1oc2c(c1C(=O)N1CCC(C)CC1)C(=O)c1ccccc1C2=O | inactive: -1.25% |
| CC(C)(C)c1cc[n+](C2=C([O-])c3ccccc3C(=O)/C2=N\S(=O)(=O)c2cccs2)cc1 | inactive: -1.85% |
| O=C1CC(CC(=O)N/N=C/c2ccccc2[N+](=O)[O-])=NN1 | inactive: 2.8% |
| O=c1[nH]c(N2CCN(c3ccccc3)CC2)nc2c1CCC2 | inactive: -16% |
| O=S(=O)(Nc1ccc2c(c1)nc1n2CCN(Cc2ccccc2)C1)c1ccccc1 | inactive: 22.8% |
| Cc1cc(-c2csc(NC(=O)c3ccc(C#N)cc3)n2)c(C)n1Cc1ccco1 | inactive: -7.5% |
| O=c1oc2ccccc2c(Nc2cccc3cccnc23)c1[N+](=O)[O-] | inactive: 9.9% |
| Cc1ccc(F)c(NC(=S)Nc2cccc3ccccc23)c1 | inactive: -4.3% |
| N#Cc1ccc(-c2csc(NC(=O)/C=C/c3cccs3)n2)cc1 | inactive: 21.3% |
| CN(C)c1ccc(C(=O)/C=C/c2ccco2)cc1 | inactive: 1.65% |
| O=[N+]([O-])c1ccc2nc(CCCc3nc4ccc([N+](=O)[O-])cc4[nH]3)[nH]c2c1 | inactive: 28.1% |
| O=[N+]([O-])c1cccc2cn[nH]c12 | inactive: -9.95% |
| CCC(C)(C)n1nnnc1CN(Cc1cc2cc(OC)c(OC)cc2[nH]c1=O)C1CCCC1 | inactive: 7.8% |
| O=C(c1cccn2c(=O)c3cc(Cl)ccc3nc12)N1CCOCC1 | active: 44.6% |
| O=[N+]([O-])c1cc2c(cc1CN1CCN(CCOCCO)CC1)OCO2 | inactive: -7.45% |
| Fc1ccc(NC(=S)Nc2cccc3cnccc23)cc1 | inactive: -7.7% |
| CC(=O)c1ccc(NC(=S)Nc2cccc3ccccc23)cc1 | inactive: 14.1% |
| Cc1c(CC(=O)N2CCN(C(=O)C3COc4ccccc4O3)CC2)c(=O)oc2c(C)c(O)ccc12 (stereo not drawn) | active: 66.6% |
| COc1ccc(CCNC(=O)c2ccc3nc(-c4ccco4)c(-c4ccco4)nc3c2)cc1OC | inactive: 13.3% |
| COc1cc(C2c3c(oc4ccccc4c3=O)C(=O)N2c2nccs2)ccc1O (stereo not drawn) | inactive: 7.95% |
| Cc1[nH][nH]c(=O)c1C(c1ccc(-c2ccc(Cl)cc2)o1)c1c(C)[nH][nH]c1=O | inactive: -34.2% |
| CN(Cc1ccco1)C(=O)c1cc2c(s1)-c1ccc(Cl)cc1S(=O)(=O)C2 | inactive: -9.15% |
| O=c1c2ccccc2nc(/C=C/c2cccnc2)n1Cc1ccccc1 | active: 30.9% |
| C/C(=C\C(=S)Nc1ccccc1)Nc1cccc2ccccc12 | inactive: -57.6% |

| SMILES | inhibition |
| --- | --- |
| COc1ccc(N(C)C(=O)Nc2ccc3nsnc3c2)cc1 | inactive: 20.2% |
| COc1ccc2c(c1)Cc1sc(NC(=O)c3ccccc3)nc1-2 | inactive: 13.9% |
| Cc1ccc(NC(=S)Nc2ccc3cn[nH]c3c2)cc1 | inactive: -3.15% |
| Cc1ccccc1NC(=O)c1ccc(N/N=C/c2ccccc2O)c([N+](=O)[O-])c1 | inactive: 24.7% |
| CN(C)/C=N/c1nc2nccc(-c3cccnc3)n2n1 | active: 49.2% |
| COc1cc(OC)c(C2Nc3cccc4cccc(c34)N2)c(OC)c1 | inactive: -3.6% |
| Cc1ccccc1-c1nc2cc(N)ccc2o1 | active: 46.2% |
| COc1cc([N+](=O)[O-])cc(/C=N/NC(=O)C(C)Nc2cccc3ccccc23)c1O (stereo not drawn) | inactive: -51.5% |
| COc1ccc2oc(=O)c(/C(C)=N/NC(=O)c3ccncc3)cc2c1 | inactive: 18.8% |
| Cn1c(=O)c2cc(NCc3ccccc3)nnc2n(C)c1=O | inactive: -0.5% |
| CCCCCCCC1(C)NC(=O)N(CC(=O)Nc2cc(C)on2)C1=O (stereo not drawn) | inactive: -7.4% |
| COc1ccc(NC(=S)Nc2cccc3ccccc23)cc1OC | inactive: -11.6% |
| CCN1C(=O)N(CC)c2cccc3cccc1c23 | inactive: -17.4% |
| O=C(Cc1ccccc1)Nc1nnc(-c2ccco2)s1 | inactive: 13.9% |
| O=C(N/N=C/c1ccc(-c2ccc(Cl)c(C(=O)O)c2)o1)c1cc2c(ccc3ccccc32)o1 | active: 50.7% |
| Cn1c(NNC(=O)c2c(F)cccc2F)cc(=O)n(C)c1=O | inactive: 1.3% |
| COC(=O)C1C(O)=C(C(C)=Nc2cccc3ccccc23)C(=O)CC1(C)C (stereo not drawn) | inactive: 1.3% |
| CCCCN1Cc2c(nc3cc(-c4ccco4)[nH]n3c2=O)C1=O | active: 31.7% |
| COc1ccc(NCc2ccc([N+](=O)[O-])s2)c(OC)c1 | inactive: -4.6% |
| CC(C)(C)c1ccc(C(=O)NNc2cc(N3CCOCC3)nc(N3CCOCC3)n2)cc1 | inactive: -7.95% |
| Cc1ccc(C)c(S(=O)(=O)Nc2cc(SCC(=O)O)c(O)c3ccccc23)c1 | inactive: -2.2% |
| CCCCOc1ccc(CSc2ncn[nH]2)cc1 | inactive: -7.1% |
| COc1cc2c(C#N)c(N3CCCC3)nc(N)c2c(N)n1 | inactive: 27.4% |
| O=C1CCN(c2ncccc2[N+](=O)[O-])CC1 | inactive: 15.4% |

| SMILES | inhibition |
| --- | --- |
| CC(Nc1cccc2ccccc12)C(=O)N/N=C/c1ccccn1 (stereo not drawn) | inactive: 9.55% |
| CC(C)NC(=S)Nc1cccc2cnccc12 | inactive: 7.55% |
| O=C(COc1ccc(/C=N/NC(=O)c2ccc(O)cc2)cc1)Nc1ccc([N+](=O)[O-])cc1 | inactive: 4.6% |
| c1ccc(Nc2ccccc2Nc2ccccn2)nc1 | inactive: 5.5% |
| CCc1ccc2c(c1)C(NC(C)=O)C(=O)N2CCN1CCOCC1 (stereo not drawn) | active: 30.8% |
| Cc1ccc(Cn2cccc(NS(C)(=O)=O)c2=O)cc1 | inactive: -3.15% |
| Nc1c(C(=O)Nc2ccccc2)sc2nc(-c3ccco3)ccc12 | active: 50.1% |
| O=C(CCN1C(=O)/C(=C/c2ccco2)SC1=S)Nc1ccc(C(=O)O)c(O)c1 | inactive: 7.15% |
| COc1ccccc1/C=C/C=N/NC(=O)c1cc(-c2ccco2)[nH]n1 | inactive: 1.9% |
| O=C(NCc1ccc(F)cc1)C(=O)c1cn(CC(=O)N2CCCC2)c2ccccc12 | inactive: -5.8% |
| CC1=NN(c2ccccc2)C(=O)/C1=C/c1ccc(Cl)cc1 | inactive: -10.2% |
| O=c1c2ccccc2nc2n1CCC2 | active: 31.4% |
| Cc1cc(C)c(S(=O)(=O)Nc2cc(SCC(=O)O)c(O)c3ccccc23)cc1C | inactive: 2.6% |
| Cc1cccc(S(=O)(=O)C(C#N)c2nc3ccccc3nc2N2CCCC2)c1 (stereo not drawn) | inactive: 0.4% |
| Fc1ccc(-c2ccnc3nc(N4CCOCC4)nn23)cc1 | active: 32.5% |
| COc1ccc(N2C(=O)[C@@H]3[C@H](C2=O)[C@H]2c4ccccc4C=CN2[C@@H]3C(C)=O)cc1 | inactive: 9.4% |
| O=c1c(-c2c(O)cc(O)c3c(=O)cc(-c4ccc(O)cc4)oc23)c(-c2ccc(O)cc2)oc2cc(O)cc(O)c12 | active: 35.6% |
| CCOC(=O)C1=C(N)n2c(s/c(=C/c3ccco3)c2=O)=C(C(=O)OC)C1c1ccco1 (stereo not drawn) | inactive: -8.65% |
| Cc1ccc(-n2cccn2)c([C@@H]2C[C@H]3CN(C)C(=O)[C@]34CCCN24)c1 | inactive: 4.05% |
| CCCCCn1c(N)c(C#N)c2nc3ccccc3nc21 | inactive: 16.7% |
| Cc1ccc(NC(=O)COc2ccc(/C=C3/NC(=O)NC3=O)cc2)cc1 | inactive: 6.2% |
| CCOC(=O)C(CCCCOc1ccc([N+](=O)[O-])cc1)C(=O)OCC | inactive: 3.85% |
| Oc1c(C=Nc2cccc3nsnc23)ccc2ccccc12 | inactive: 14.2% |
| C=CCOc1c(Br)cc(/C=C2\SC(=Nc3ccccc3)NC2=O)cc1OC | inactive: 9.1% |

| SMILES | inhibition |
| --- | --- |
| C=CCN1C(=O)N(/C=C/C)c2cccc3cccc1c23 | inactive: -13.1% |
| CC(C)N1CCC2(CC1)C(C#N)=C(N)NC(S)=C2C#N | active: 33.9% |
| CCN(c1ccccc1)S(=O)(=O)c1ccc(Cl)c(NC(=O)COC(=O)c2cc(O)c3ccccc3c2O)c1 | inactive: 0.45% |
| CCC(=O)c1ccccc1OCCSc1nc(C)cc(=O)[nH]1 | inactive: -8.6% |
| COc1ccc(-c2cc(-c3ccccc3)n3ncnc3n2)cc1 | active: 53.7% |
| S=c1[nH]nc(-c2cccc(Cl)c2)n1/N=C/c1ccc(-c2ccccc2Br)o1 | inactive: 7.3% |
| O=C(N/N=C/c1ccc(-c2cccc([N+](=O)[O-])c2)o1)c1ccccc1O | inactive: 2.3% |
| C=CCOC(=O)C(C#N)c1nc2ccccc2nc1N1CCN(Cc2ccccc2)CC1 (stereo not drawn) | inactive: -1.65% |
| Cc1cccc(C)c1OCC(=O)N=Nc1c(O)[nH]c2ccc(Br)cc12 | inactive: -1.15% |
| COc1ccc(OC)c(/C=C2\S/C(=N/NC(=O)c3ccc4ccccc4c3)NC2=O)c1 | inactive: 8.75% |
| Cc1oc2c(c1C(=O)O)C(=O)c1ccccc1C2=O | inactive: -5.95% |
| COc1ccc2c(c1)Cc1sc(NC(=O)c3cccs3)nc1-2 | inactive: 13.1% |
| Oc1ccc(N=Cc2ccc(-c3cccs3)s2)cc1 | inactive: -1.7% |
| Nc1ccc(O)cc1C(=O)OCC(=O)c1ccc(C2CCCCC2)cc1 | inactive: 21.6% |
| C/C(=C\C(=O)c1ccccc1)Nc1ccc(O)cc1 | inactive: 10.8% |
| CC1=C(C(=O)Nc2ccccc2)C(c2ccc(C)cc2)N=C(Nc2nc3ccccc3o2)N1 (stereo not drawn) | inactive: 10.2% |
| COC(=O)c1cc(O)cc(OC)c1Oc1cc(C)cc(O)c1C(=O)O | inactive: 11% |
| [O-]/C(=C(\C(=S)Nc1cccc2ccccc12)[n+]1ccccc1)c1ccc(Cl)s1 | inactive: -8.3% |
| CN(CCC#N)C(=O)COC(=O)c1c2c(nc3ccccc13)/C(=C/c1ccco1)CC2 | active: 36.5% |
| COn1c(C)c(C)c2c3nonc3ccc21 | inactive: 15.1% |
| Cc1cc(/C=C2\C(=O)NN(c3ccccc3)C2=O)c(C)n1-c1ccccc1O | inactive: -1.5% |
